Screen size: about 370,000 compounds; about 150 (0.041%) were called active. The shares of active, inactive and inconclusive entries below differ from those in the screen. Calls follow the shape of the dose curve; as a rule, active = well fitted inhibition curve with a large enough effect; inconclusive = small, poorly fitted or top-dose-only effect; inactive = flat fitted curve, though single readings scatter. Potencies of inconclusive entries are left out as doubtful fits.
The molecules below were run against Beta-lactamase (Escherichia coli (strain K12)) (UniProt P00811) (assay: qHTS Inhibitors of AmpC Beta-Lactamase (assay with detergent)). Settings: AmpC hydrolysis of nitrocefin, absorbance 480 nm, 0.01% Triton; series mostly up to 114 µM.
UniProt P00811, sequence (P00811 whole entry, looked up): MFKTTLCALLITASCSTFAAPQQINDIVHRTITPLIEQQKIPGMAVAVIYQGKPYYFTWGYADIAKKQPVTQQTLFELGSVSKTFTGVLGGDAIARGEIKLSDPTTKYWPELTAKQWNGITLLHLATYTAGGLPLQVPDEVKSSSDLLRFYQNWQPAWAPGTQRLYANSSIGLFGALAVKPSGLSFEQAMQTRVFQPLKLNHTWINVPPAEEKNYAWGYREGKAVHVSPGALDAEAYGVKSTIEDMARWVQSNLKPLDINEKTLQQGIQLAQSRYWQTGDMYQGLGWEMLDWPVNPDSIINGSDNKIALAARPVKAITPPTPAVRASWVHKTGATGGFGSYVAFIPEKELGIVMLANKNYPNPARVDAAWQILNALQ
Outline: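 20 mM phosphate pH 7.0 + 0.01% (detergent screen) or 0.0001% Triton X-100; 5.3 nM AmpC reagent; cpd preinc 15 min RT; nitrocefin (800 uM stock) to start; A480 q20 s × 4 min; Activity was normalised to no-enzyme and no-compound control wells.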
Also: nearly all actives have a fitted effect of over 25% in size.
Potency is read from the fitted curve at half-maximal effect; tags tell the direction and shape of the fitted curve.

SMILES	Potency
CCC(C)c1ccc(OCC(=O)Nc2ccc(Cl)cn2)cc1 (stereo not drawn)	inactive
O=C(CN1C(=O)NC2(CCCC2)C1=O)N1CCCSC1=Nc1ccccc1	inactive
C=C1C(=O)O[C@@H]2C[C@@H](C)[C@@H]3C=CC(=O)[C@@]3(C)[C@@H](O)[C@H]12	inactive
O=C(NCc1cccnc1)C1CC(c2ccc(Cl)c(Cl)c2)=NO1 (stereo not drawn)	inconclusive [inhibitor, partial curve]
Cc1ccnc(NC(=O)c2cccc(S(=O)(=O)N3CCOCC3)c2)c1	inconclusive [inhibitor, full curve]
CC(Sc1nncs1)C(=O)Nc1ccc2c(c1)OCCO2 (stereo not drawn)	inconclusive [inhibitor, full curve, poor fit]
COc1ccc(C(=O)Nc2ccnn2C2CCN(Cc3cnn(C)c3)CC2)cc1	inconclusive [inhibitor, full curve, poor fit]
CCN(C(=O)/C=C/c1ccc(OC)cc1)C1CCCCC1	inactive
CC(C)C[C@H](NC(=O)NCCc1ccc(Cl)cc1)C(=O)O	inconclusive [inhibitor, full curve]
COc1ccc(CCNC(=O)CNC(=O)Cn2ccc3ccccc3c2=O)cc1OC	inactive
c1ccc(N2CCN(CCc3nnc4n3CCCCC4)CC2)cc1	inactive
CC1(c2ccccc2)CC(C)(C)N(C(=O)c2ccccc2Cl)c2ccccc21 (stereo not drawn)	inactive
Cn1c(-c2ccccc2)cnc1SCC(=O)N1CCCCC1	inactive
Cc1ccc(C2=[N+]([O-])C(C)(C)N(O)C2(C)C)cc1	inconclusive [inhibitor, full curve, poor fit]
c1ccc(C2CC(c3ccccc3)n3ncnc3N2)cc1 (stereo not drawn)	inconclusive [inhibitor, partial curve, poor fit]
N#Cc1c(NC(=O)C2CC(c3ccccc3O)=NO2)sc2c1CCC2 (stereo not drawn)	inconclusive [inhibitor, partial curve, poor fit]
O=C(CN1CCOCC1)n1c2ccccc2c2ccccc21	inconclusive [inhibitor, partial curve, poor fit]
CCCCN(C(=O)c1ccc2c(c1)OCO2)c1c(N)n(CCCC)c(=O)[nH]c1=O	inconclusive [inhibitor, full curve]
COc1ccc(-c2nnn(CC(=O)OC3CCCCC3)n2)cc1OC	inconclusive [inhibitor, full curve, poor fit]
Cc1cccc2cc(CN(CCN(C)C)C(=S)NCc3ccco3)c(=O)[nH]c12	inconclusive [inhibitor, single point]
CCCOC(=O)c1cccc(NC(=O)c2cccnc2)c1	inconclusive [inhibitor, full curve, poor fit]
COc1ccc(NC(=O)c2ccc(NC(=O)c3cccs3)cc2)cc1	inconclusive [inhibitor, full curve, poor fit]
C#CCOc1ccc(/C=C2/C(=O)NN(c3ccc(F)cc3)C2=O)cc1OC	inactive

SMILES	Potency
Cc1ccc(S(=O)(=O)N2CCN(C(=O)CC(C)C)CC2)cc1	inconclusive [inhibitor, full curve, poor fit]
CCOC(=O)N1CCN(C(=O)C2CCN(Cc3ccc(OC)cc3OC)CC2)CC1	inconclusive [inhibitor, full curve]
Cc1ccc(-c2n[nH]c(=S)n2/N=C/c2c(C)nn(-c3ccccc3)c2C)cc1	inconclusive [inhibitor, single point]
CCn1c(SCC(=O)N2CCCC2)nc2c(c1=O)SC(C)C2 (stereo not drawn)	inconclusive [inhibitor, full curve]
Cn1ncc2c(NNC(=O)c3ccc(Cl)c(Cl)c3)ncnc21	inactive
CCCn1nnnc1NCc1ccc(OC)cc1	inconclusive [inhibitor, full curve, poor fit]
COc1ccc(/C=C(\NC(=O)c2ccccc2)C(=O)NCc2ccco2)cc1OC	inconclusive [inhibitor, full curve, poor fit]
O=S(=O)(/C=C/c1ccccc1)NCc1ccccc1Cl	inconclusive [inhibitor, partial curve, poor fit]
Cc1ccc2nc(N3CCC(C(=O)O)CC3)nc(-c3ccccc3)c2c1	inconclusive [inhibitor, full curve, poor fit]
Oc1ccc(Nc2nc(-c3cccs3)cs2)cc1	inconclusive [inhibitor, full curve]
Cc1nc2ccc(Cl)cc2nc(C)/c1=N\O	inconclusive [inhibitor, full curve, poor fit]
CCOc1ccccc1/C=N/n1nnnc1N	inconclusive [inhibitor, single point]
C/C(=N/Nc1nc(C)c(C)s1)c1cccc([N+](=O)[O-])c1	inconclusive [inhibitor, partial curve, poor fit]
CCC(C)[C@@H](C(=O)NCC1CCC(C(=O)O)CC1)n1nnc2ccccc2c1=O (stereo partly drawn)	inconclusive [inhibitor, partial curve, poor fit]
CNc1cc(C)nc(-n2nc(C)cc2C)n1	inconclusive [inhibitor, single point]
Cc1cccc(-c2nnc(SCCC(=O)O)o2)c1	inactive
Cc1noc(C)c1COC(=O)CCc1nc2ccccc2s1	inactive
Cc1cc(C)cc(N(CCC#N)C(=O)CSc2ncnc3sccc23)c1	inactive
COC(=O)CC1COc2ccccc2N1S(=O)(=O)c1ccc(Br)cc1 (stereo not drawn)	inconclusive [inhibitor, single point]
CNC(=O)c1csc(-c2ccc(C)cc2)n1	inconclusive [inhibitor, single point]
COCc1nnc(NC(=O)c2ccco2)s1	inconclusive [inhibitor, full curve, poor fit]
CCOC1(OCC)C(c2ccc(Cl)cc2)C(C#N)(C#N)C1(OCC)OCC (stereo not drawn)	inconclusive [inhibitor, full curve, poor fit]
CCOC(=O)N1CCN(c2cc(=O)n(-c3ccccc3Cl)c(=O)[nH]2)CC1	inconclusive [inhibitor, full curve]

SMILES	Potency
O=C1NC(=O)C(CCc2ccncc2)(CCc2ccncc2)C(=O)N1CCc1ccc(F)cc1	inconclusive [inhibitor, partial curve, poor fit]
O=C1Cc2cc(S(=O)(=O)N3CCCCC3)ccc2N1	inconclusive [inhibitor, partial curve, poor fit]
Cc1ccn(S(=O)(=O)c2ccc3oc(=O)ccc3c2)n1	inactive
O=C(NCc1ccccc1F)c1ccc(S(=O)(=O)N2CCCCCC2)cc1	inactive
COc1cccc(COCCN2CCN(S(=O)(=O)c3ccc(C)cc3)CCC2=O)c1	inconclusive [inhibitor, full curve, poor fit]
C=CCn1c(N)cc(=O)nc1SCC(=O)Nc1ccc2ccccc2c1	inconclusive [inhibitor, partial curve, poor fit]
O=C(COc1ccc2ccccc2c1)NNC(=O)c1cccs1	inconclusive [inhibitor, partial curve, poor fit]
O=C(NCc1ccco1)c1cc(-c2ccc(F)cc2)on1	inactive
O=C(c1ccc(Sc2ccccc2)c([N+](=O)[O-])c1)N1CCOCC1	inconclusive [inhibitor, full curve, poor fit]
CCOc1ccc(N2C(=O)CC(N3CCN(c4ccc([N+](=O)[O-])cc4)CC3)C2=O)cc1 (stereo not drawn)	inconclusive [inhibitor, full curve, poor fit]
CCCCOc1ccccc1NC(=O)Cn1c(-c2nonc2N)nc2ccccc21	inconclusive [inhibitor, partial curve]
Cc1cccc(C(=O)Nc2cccc(C(=O)OCc3cc(=O)n4nc(C5CC5)sc4n3)c2)c1	inactive
CNc1ccc(OC(F)F)cc1C(=O)c1ccccc1	inconclusive [inhibitor, full curve, poor fit]
CN1C(=O)C(C)(C)c2cc(S(=O)(=O)N3CCN(c4ccccc4)CC3)ccc21	inconclusive [inhibitor, partial curve, poor fit]
Cc1cc(N2CCOCC2)c2c(N)cc(C)c(C)c2n1	inconclusive [inhibitor, single point]
CCOc1ccccc1NC(=O)CCN1CCN(S(=O)(=O)c2ccc(Br)cc2)CC1	inconclusive [inhibitor, full curve]
COc1ccccc1CNC(=O)CN1c2cccc3cccc(c23)S1(=O)=O	inactive
COC(=O)N(NC(=O)C(O)(c1ccccc1)c1ccccc1)c1ccccc1	inconclusive [inhibitor, full curve, poor fit]
COC(=O)c1cn(CCOc2ccccc2F)c2ccccc12	inconclusive [inhibitor, single point]
Cc1cc(C(=O)CSc2nnc(-c3cccc(F)c3)n2N)c(C)n1Cc1ccc2c(c1)OCO2	inactive
CCc1noc(C)c1C(=O)OC(C)C(=O)NCc1ccc(OC)cc1 (stereo not drawn)	inconclusive [inhibitor, single point]
Cc1ccc(C(=O)N/N=C2\SCC(=O)N2c2cc(C)ccc2C)cc1	inconclusive [inhibitor, single point]
